# At least one read-out could not be matched to a standard name with certainty. Marks after values point to notes of the source that are not given here.
# System: CaSki cells
# Experiment: Colony Formation Assay (CFA), 14 days
# Assay type: cell-based, human
# Conditions: colony formation assay, class by % inhibition at 0.7, 6 or 50 μM
row,SMILES,Activity (inhibition of colony formation)
1,"CC(C)C[C@@H]1NCCN([C@@H](CC(C)C)C(=O)N2CCC3CC(CN(C)C)CCC3C2)C1=O (stereo partly drawn) [Compound 293, (S)-1-[(S)-1-({6-[(Dimethyl-amino)methyl]per-hydroiso-quinol-2-yl}carbonyl)-3-methylbutyl]-3-isobutyl-2-piperazinone]",*+ (greater than 0% but less than or equal to 50% inhibition of colony formation at a concentration of 0.7 μM)
2,"CCCC[C@@H](C(=O)N1CCC(CC(N)=O)CC1)N1CCN[C@@H](CC(C)(C)C)C1=O [Compound 113, (1-{(S)-2-[(S)-3-Neopentyl-2-oxo-1-piperazinyl]hex-anoyl}-4-piperidyl)acetamide]",+* (greater than 0% but less than or equal to 50% inhibition of colony formation at a concentration of 50 μM)
3,"CC(C)C[C@@H]1NCCN([C@@H](CC(C)C)C(=O)N2CCC(CCN3CCC(F)(F)CC3)CC2)C1=O [Compound 242, (S)-1-[(S)-1-({4-[2-(4,4-Difluoro-1-piperidyl)ethyl]-1-piperidyl}carbonyl)-3-methylbutyl]-3-isobutyl-2-piperazinone]",++++ (more than 90% inhibition of colony formation at a concentration of 6 μM)
4,"CC(=O)N1CCN([C@@H](CC(C)C)C(=O)N2CCC(Cc3nccn3C)CC2)C(=O)[C@@H]1CC(C)C [Compound 1, (S)-1-[(S)-3-Methyl-1-({4-[(1-methyl-1H-imidazol-2-yl)methyl]-1-piperidyl}car-bonyl)butyl]-4-acetyl-3-isobutyl-2-piperazinone]",+++ (more than 90% inhibition of colony formation at a concentration of 50 μM)
5,"CCC[C@@H]1NCCN([C@@H](CC(C)(C)C)C(=O)N2CCC(CC(N)=O)CC2)C1=O [Compound 117, (1-{(S)-2-[(S)-2-Oxo-3-propyl-1-piperazinyl]-4,4-dimethylvaleryl}-4-piperidyl)acetamide]",+* (greater than 0% but less than or equal to 50% inhibition of colony formation at a concentration of 50 μM)
6,"CC(C)C[C@@H]1NCCN([C@@H](CC(C)C)C(=O)N2CCC(CCN3CCC3)CC2)C1=O [Compound 238, (S)-1-[(S)-1-({4-[2-(1-Azetidinyl)ethyl]-1-piperidyl}carbonyl)-3-methylbutyl]-3-isobutyl-2-piperazinone]",++++ (more than 90% inhibition of colony formation at a concentration of 6 μM)
7,"CC(C)CC1CCN(C(=O)[C@H](CC(C)C)N2CCN[C@@H](CC(C)C)C2=O)CC1 [Compound 46, (S)-1-{(S)-1-[(4-Isobutyl-1-piperidyl)carbonyl]-3-methylbutyl}-3-isobutyl-2-piperazinone]",+++ (more than 90% inhibition of colony formation at a concentration of 50 μM)
8,"CC(C)C[C@@H]1NCCN([C@@H](CC(C)C)C(=O)N2CCC(C)(Cc3ncc[nH]3)CC2)C1=O [Compound 76, (S)-1-[(S)-1-({4-[(1H-Imidazol-2-yl)methyl]-4-methyl-1-piperidyl}carbonyl)-3-methylbutyl]-3-isobutyl-2-piperazinone]",+++ (more than 90% inhibition of colony formation at a concentration of 50 μM)
9,"CC(C)C[C@@H]1NCCN([C@@H](CC(C)C)C(=O)N2CCC(Cc3nccn3C)CC2)C1=O [Compound 29, (S)-1-[(S)-3-Methyl-1-({4-[(1-methyl-1H-imidazol-2-yl)methyl]-1-piperidyl}car-bonyl)butyl]-3-isobutyl-2-piperazinone]",+++ (more than 90% inhibition of colony formation at a concentration of 50 μM)
10,"CC(C)CCN(C)C(=O)CC1(C)CCN(C(=O)[C@H](CC(C)C)N2CCN[C@@H](CC(C)C)C2=O)CC1 [Compound 39, (S)-1-[(S)-1-[(4-{2-[N-Methyl(isopentyl)amino]-2-oxoethyl}-4-methyl-1-piperidyl)carbonyl]-3-methylbutyl]-3-isobutyl-2-piperazinone]",++ (more than 50% inhibition of colony formation at a concentration of 50 μM)
11,"CC(C)C[C@@H]1NCCN([C@@H](CC(C)C)C(=O)N2CCC(CC(=O)N(C)C)CC2)C1=O [Compound 13, (S)-1-[(S)-1-({4-[2-(Dimethylamino)-2-oxoethyl]-1-piperidyl}carbonyl)-3-methylbutyl]-3-isobutyl-2-piperazinone]",+* (greater than 0% but less than or equal to 50% inhibition of colony formation at a concentration of 50 μM)
12,"CCCC[C@@H]1NCCN([C@@H](CC(C)(C)C)C(=O)N2CCC(CC(N)=O)CC2)C1=O [Compound 123, (1-{(S)-2-[(S)-3-Butyl-2-oxo-1-piperazinyl]-4,4-dimethylvaleryl}-4-piperidyl)acetamide]",+* (greater than 0% but less than or equal to 50% inhibition of colony formation at a concentration of 50 μM)
13,"COC(=O)C1CCN(C(=O)[C@H](CC(C)C)N2CCN[C@@H](CC(C)C)C2=O)CC1 [Compound 23, Methyl 1-{(S)-2-[(S)-3-isobutyl-2-oxo-1-piperazinyl]-4-methylvaleryl}-4-piperidinecar-boxylate]",+* (greater than 0% but less than or equal to 50% inhibition of colony formation at a concentration of 50 μM)
14,"CC(C)C[C@@H]1NCCN([C@@H](CC(C)C)C(=O)N2CCC(CCCN(C)C)CC2)C1=O [Compound 63, (S)-1-[(S)-1-({4-[3-(Dimethylamino)pro-pyl]-1-piperidyl}carbonyl)-3-methylbutyl]-3-isobutyl-2-piperazinone]",+++ (more than 90% inhibition of colony formation at a concentration of 50 μM)
15,"CCN(CCC1CCN(C(=O)[C@H](CC(C)C)N2CCN[C@@H](CC(C)C)C2=O)CC1)CC(C)C [Compound 64, (S)-1-[(S)-1-[(4-{2-[N-Ethyl(isobutyl)ami-no]ethyl}-1-piperidyl)carbonyl]-3-methylbutyl]-3-isobutyl-2-piperazinone]",+++ (more than 90% inhibition of colony formation at a concentration of 50 μM)
16,"CCOC(=O)C1CCN(C(=O)[C@H](CC(C)C)N2CCN[C@@H](CC(C)C)C2=O)CC1 [Compound 24, Ethyl 1-{(S)-2-[(S)-3-isobutyl-2-oxo-1-piperazinyl]-4-methylvaleryl}-4-piperidinecar-boxylate]",+* (greater than 0% but less than or equal to 50% inhibition of colony formation at a concentration of 50 μM)
17,"CC(C)C[C@@H]1NCCN([C@@H](CC(C)C)C(=O)N2CCC(CC3CCCCN3C)C[C@@H]2C)C1=O (stereo partly drawn) [Compound 294, (S)-1-[(S)-1-({(2S)-2-Methyl-4-[(1-methyl-2-piperidyl)methyl]-1-piperidyl}carbonyl)-3-methylbutyl]-3-isobutyl-2-piperazinone]",*+ (greater than 0% but less than or equal to 50% inhibition of colony formation at a concentration of 0.7 μM)
18,"Cc1cn(C)c(CC2CCN(C(=O)[C@H](CC(C)C)N3CCN[C@@H](CC(C)C)C3=O)CC2)n1 [Compound 17, (S)-1-[(S)-3-Methyl-1-({4-[(1-methyl-4-methyl-1H-imidazol-2-yl)methyl]-1-piperidyl}car-bonyl)butyl]-3-isobutyl-2-piperazinone]",++ (more than 50% inhibition of colony formation at a concentration of 50 μM)
19,"CC(C)C[C@@H](C(=O)N1CCC(CCN2CCCC2)CC1)N1CCN(C(=O)N(C)C)[C@@H](CC(C)C)C1=O [Compound 277, (S)-1-[(S)-3-Methyl-1-({4-[2-(1-pyrrolidinyl)ethyl]-1-piperidyl}car-bonyl)butyl]-4-(dimethylamino)car-bonyl-3-isobutyl-2-piperazinone]",*+ (greater than 0% but less than or equal to 50% inhibition of colony formation at a concentration of 0.7 μM)
20,"CC(C)C[C@@H](C(=O)N1CCC(CC(N)=O)CC1)N1CCN[C@@H](C)C1=O [Compound 121, (1-{(S)-2-[(S)-3-Methyl-2-oxo-1-piperazinyl]-4-methylvaleryl}-4-piperidyl)acetamide]",+* (greater than 0% but less than or equal to 50% inhibition of colony formation at a concentration of 50 μM)

# Same assay, conditions: inhibition of colony formation, 14 days, classes at 6, 50 or 0.7 μM
row,SMILES,Activity
1,"CCN(C(=O)CC1CCN(C(=O)[C@H](CC(C)C)N2CCN[C@@H](CC(C)C)C2=O)CC1)C1CCCCC1 [Compound 181, (S)-1-[(S)-1-({4-[2-(N-Ethyl-N-cyclohexylamino)-2-oxoethyl]-1-piperidyl}carbonyl)-3-methylbutyl]-3-isobutyl-2-piperazinone]",++ (more than 50% inhibition of colony formation at a concentration of 50 μM)
2,"CC(C)C[C@@H]1NCCN([C@@H](CC(C)C)C(=O)N2CCC(CC(=O)OC(C)C(C)C)CC2)C1=O (stereo partly drawn) [Compound 201, 1,2-Dimethylpropyl (1-{(S)-2-[(S)-3-isobutyl-2-oxo-1-piperazinyl]-4-methylvaleryl}-4-piperidyl)acetate]",+++ (more than 90% inhibition of colony formation at a concentration of 50 μM)
3,"CC(C)C[C@@H]1NCCN([C@@H](CC(C)C)C(=O)N2CCC(Sc3nccn3C)CC2)C1=O [Compound 142, (S)-1-[(S)-3-Methyl-1-{[4-(1-methyl-1H-imidazol-2-ylthio)-1-piperidyl]car-bonyl}butyl]-3-isobutyl-2-piperazinone]",++ (more than 50% inhibition of colony formation at a concentration of 50 μM)
4,"CC(=O)c1ccc(OCC2CCN(C(=O)[C@H](CC(C)C)N3CCN[C@@H](CC(C)C)C3=O)CC2)cc1 [Compound 188, (S)-1-[(S)-1-({4-[(p-Acetylphenoxy)methyl]-1-piperidyl}carbonyl)-3-methylbutyl]-3-isobutyl-2-piperazinone]",+++ (more than 90% inhibition of colony formation at a concentration of 50 μM)
5,"CC(C)C[C@@H]1NCCN([C@@H](CC(C)C)C(=O)N2CCC(CCN)CC2)C1=O [Compound 138, (S)-1-[(S)-1-{[4-(2-Aminoethyl)-1-piperidyl]carbonyl}-3-methylbutyl]-3-isobutyl-2-piperazinone]",+++ (more than 90% inhibition of colony formation at a concentration of 50 μM)
6,"CC(C)C[C@@H]1NCCN([C@@H](CC(C)C)C(=O)N2CCC(CC(=O)OC3CCCCC3)CC2)C1=O [Compound 210, Cyclohexyl (1-{(S)-2-[(S)-3-isobutyl-2-oxo-1-piperazinyl]-4-methylvaleryl}-4-piperidyl)acetate]",+++ (more than 90% inhibition of colony formation at a concentration of 50 μM)
